This note sets out measurements from article PMC6212790.

The list shows a part of the results. At the low end of the ranking the order means little.

The target of the test is T1, GST-Rok (full length) (UniProt O34857).
T1 sequence: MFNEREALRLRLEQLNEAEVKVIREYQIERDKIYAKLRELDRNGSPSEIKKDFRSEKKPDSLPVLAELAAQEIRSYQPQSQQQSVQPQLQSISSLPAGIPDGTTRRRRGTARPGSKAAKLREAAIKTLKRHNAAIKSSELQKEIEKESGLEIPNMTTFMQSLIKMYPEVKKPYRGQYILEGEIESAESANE
In words: protein binding microarray.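 Note: rank score from −0.5 (least bound) to 0.5 (best bound).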 The note with it: Rok is a gene silencer of Bacillus subtilis; high values mean tight binding; most listed sequences are background and not binding sites; double strand, one strand shown.
AGTATTAA gave a binding signal of 0.29 E-score.

For the sequence CCGCATAG, the binding signal is -0.119 E-score.

As for AGTCGCCG, the binding signal was -0.16 E-score.

For the sequence AGTTAAGC, the binding signal was -0.0477 E-score.

Turning to ACTCTTAA, the binding signal was 0.0606 E-score.

As to AGAGTTCC, the binding signal came out at 0.0145 E-score.

CTGGGAGA gave a binding signal of -0.21 E-score.

Turning to AGATTGAT, the binding signal was 0.0811 E-score.

As for TAGCCCAA, the binding signal is -0.0264 E-score.

The sequence CGGTTCTC returned a binding signal of 0.0956 E-score.

AATGAGGT came in with a binding signal of 0.0415 E-score.

ACACCCGT gave a binding signal of -0.145 E-score.

ATGAATGC: the binding signal was determined as 0.142 E-score.

In turn, AACCGGTA gave a binding signal of 0.274 E-score.

Sequence AGTCCACC gave a binding signal of -0.238 E-score.

The sequence TCTTGGCA displayed a binding signal of 0.00716 E-score.

CATAGAAA displayed a binding signal of 0.129 E-score.

The sequence CATTTCTA yielded a binding signal of 0.288 E-score.

Consider GATCACAA, for which the binding signal is -0.275 E-score.

Take GCAAATTA: the binding signal stood at 0.218 E-score.

Sequence TAACACGA showed a binding signal of 0.129 E-score.

Take GAGAGCAA: the binding signal was -0.36 E-score.

For CCTTATGC, the binding signal is -0.115 E-score.

ATCGATCC had a binding signal of 0.0914 E-score.

The sequence GTACGCAA returned a binding signal of 0.263 E-score.

Regarding ATCCCATC, the binding signal came out at 0.0128 E-score.

CACGCCAG displayed a binding signal of -0.175 E-score.

Turning to CATAGCCC, the binding signal was -0.102 E-score.

Sequence AGACATGG displayed a binding signal of -0.0718 E-score.

CGTTCTAA showed a binding signal of 0.0668 E-score.

As to ACGATCGG, the binding signal turned out to be 0.0558 E-score.

Consider CGCGCCTA, for which the binding signal is -0.0944 E-score.

In turn, AAATACTT had a binding signal of 0.259 E-score.

With CGAGGAGC, the binding signal is -0.324 E-score.

Sequence ATTTCGTA had a binding signal of 0.332 E-score.

Consider CATGCCTC, for which the binding signal was -0.202 E-score.

In turn, ATTCATAG showed a binding signal of 0.279 E-score.

The sequence AGGCCGGG showed a binding signal of -0.361 E-score.

In turn, CTCAGGCC gave a binding signal of -0.293 E-score.

GTCATCCA registered a binding signal of -0.00614 E-score.

In turn, ATCATGTG gave a binding signal of 0.0302 E-score.

Take GGCTTCAA: the binding signal was -0.0517 E-score.

In turn, TACTCCCA showed a binding signal of -0.026 E-score.

CCCATGAA: the binding signal was -0.00573 E-score.

The sequence AATCGGTG registered a binding signal of 0.0554 E-score.

With CGCCCCCA, the binding signal is -0.167 E-score.

Regarding GATTATGC, the binding signal was 0.176 E-score.

Sequence ACCAACAG registered a binding signal of 0.0502 E-score.

For CTTCGGAA, the binding signal was -0.149 E-score.

In turn, CCCTAGCA yielded a binding signal of -0.156 E-score.

For AACGTGTA, the binding signal was -0.0386 E-score.

On to CGAACTAA, for which the binding signal came to 0.109 E-score.

Turning to CCCCCGGA, the binding signal was -0.467 E-score.

AAGTCAGT displayed a binding signal of 0.0615 E-score.

In the case of AACACACA, the binding signal is 0.0536 E-score.

AGCTCGTC yielded a binding signal of -0.181 E-score.

Turning to ATTGTTGA, the binding signal came out at 0.0133 E-score.

In turn, CCGATTCC returned a binding signal of -0.251 E-score.

AGGGATAG had a binding signal of -0.176 E-score.

Sequence AGCCTTGC yielded a binding signal of -0.292 E-score.

The sequence CTCAGAAG gave a binding signal of -0.0826 E-score.

ACGGGTAG returned a binding signal of 0.0412 E-score.

Turning to GACACTAC, the binding signal was -0.0667 E-score.

Consider AACCATGT, for which the binding signal is -0.00971 E-score.

CCTAGACA gave a binding signal of -0.0491 E-score.

AGCTCTCA had a binding signal of -0.12 E-score.

With CAGTGGTA, the binding signal came out at 0.258 E-score.

In the case of ACGCCCAT, the binding signal is -0.311 E-score.

GATGGTGA: the binding signal stood at 0.0154 E-score.

In turn, GGGGAGAA showed a binding signal of -0.197 E-score.

In turn, AGGAGATA registered a binding signal of 0.0345 E-score.

As for CCCGAAGC, the binding signal was -0.387 E-score.

As to CAGCGCAG, the binding signal is -0.209 E-score.

GTAGTTAA displayed a binding signal of 0.431 E-score.

For the sequence CCTCAGCA, the binding signal is -0.202 E-score.

As for GCCCTACC, the binding signal was -0.197 E-score.

As for ACACATAT, the binding signal was determined as 0.192 E-score.

For CATTGCCG, the binding signal was -0.035 E-score.

The sequence AGGGCACA came in with a binding signal of -0.209 E-score.

Regarding AGGGGATC, the binding signal is -0.365 E-score.

For the sequence CACAAGGA, the binding signal was -0.124 E-score.

Take CACTCCAG: the binding signal was -0.203 E-score.

In the case of GTATCATA, the binding signal was found to be 0.153 E-score.

In turn, CATCGGGG returned a binding signal of -0.364 E-score.

GGGGGGAA showed a binding signal of -0.374 E-score.

TGATACAA came in with a binding signal of 0.306 E-score.

CTGGTGCA returned a binding signal of -0.0982 E-score.

In turn, ATTCGAAG displayed a binding signal of 0.09 E-score.

Regarding CTGACCAC, the binding signal is -0.141 E-score.

Consider AGTTACTC, for which the binding signal came out at 0.188 E-score.

Sequence AATGGACT had a binding signal of -0.000336 E-score.

The sequence CGATCTAG displayed a binding signal of 0.214 E-score.

Regarding AGCTAAGC, the binding signal was 0.000675 E-score.

Sequence ATGAAATG came in with a binding signal of 0.0719 E-score.

As to AAATAGTA, the binding signal is 0.42 E-score.

Take CAACAATG: the binding signal is 0.0221 E-score.

Sequence AATTCCAT came in with a binding signal of 0.181 E-score.

As to CAATCGGC, the binding signal is -0.115 E-score.

Regarding ACACGTTA, the binding signal worked out at 0.067 E-score.

Sequence CGAGGCAC registered a binding signal of -0.132 E-score.

In the case of CTGGCTCC, the binding signal is -0.398 E-score.

The sequence ATCACTCG yielded a binding signal of -0.0286 E-score.

With GTGGAAAC, the binding signal was -0.137 E-score.

CCAAGTGG registered a binding signal of -0.0692 E-score.

As to ACATTAGA, the binding signal is 0.154 E-score.

In turn, ATTCCATC showed a binding signal of 0.0755 E-score.

Take GTGTTTGA: the binding signal stood at 0.00176 E-score.

In turn, AATAAGAT returned a binding signal of 0.218 E-score.

Take AGTCCGAA: the binding signal was -0.104 E-score.

The sequence AAGGTTGA came in with a binding signal of -0.0152 E-score.
